Where “and” joins values, the source holds several entries; their conditions need not be identical. Identical values can stand only once.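 Where inhibition never reached the appropriate level, the endpoint shown equals the highest concentration tested. Otherwise, values were interpolated linearly from a five-concentration, 48-hour dose response in 96-well plates. GI50 marks 50% less growth.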 Calls of active or inactive are those of the source. No stated cut-off is given here; in the data, active = GI50 up to about 1.1 µM and inactive = higher.

The subject of this assay is NCI-H322M. The experiment in a line: NCI-60 cell line screen, 48 h.
Regarding `O=c1ccc(=O)n(-c2ccccc2)[nH]1`, the GI50 is inactive: > 100 µM.
The same measure for `NNc1nc2ccccc2s1`: inactive: > 100 µM; for `Cc1cccc(C(O)c2ccncc2)c1O` (stereo not given): inactive: > 100 µM; for `Nc1nnc2n1C(=O)C(C1(C3=Nc4nnc(N)n4C3=O)Cc3ccccc3C1=O)=N2`: inactive: > 100 µM.
Consider `CC(=O)Nc1ccc2c3c(cc(O)c2c1)N(C(=O)CCCCCC(=O)Nc1ccc2c4c(cc(O)c2c1)N(C(=O)OC(C)(C)C)CC4CCl)CC3CCl` (stereo not given), for which the GI50 was inactive: 8.47 µM.
The same measure for `O=C(O)C1CCCCN1C(=O)c1ccccc1` (stereo not given): inactive: > 100 µM; for `CC1=NN(C(=O)CC(=O)Nc2cccc(C)c2)C(=O)C1/N=N/c1ccc(C(=O)O)cc1` (stereo not given): inactive: > 100 µM; for `CNC(=O)OCC1=C(COC(=O)NC)CN(c2ccc(OC)cc2)C1`: inactive: > 100 µM.
The same measure for `COc1ccc(/N=C(\C)c2ccncc2)cc1`: inactive: > 100 µM; for `CC(C)CCC1CC2C(=O)N(c3ccccc3)C(=O)C2c2[nH]c3ccccc3c21` (stereo not given): active: 0.518 µM.
The same measure for `COc1ccc(/N=N/C(C(=O)c2ccccc2)C(=O)c2ccccc2)cc1`: inactive: 4.07 µM.
As to `FC(F)(F)c1ccc2c(c1)nc1n2C(c2c(Cl)cccc2Cl)SC1` (stereo not given), the GI50 was inactive: 19.3 µM.
Take `C=C1C(=O)OC2CC1C(OC(C)=O)C/C(C)=C/CC/C(C)=C\CCC2(C)O` (stereo not given): the GI50 is inactive: 15.2 µM and inactive: 13.6 µM.
The same measure for `O=C1C[C@@H](C(=O)OCc2ccccc2)NC(=O)C[C@@H](C(=O)OCc2ccccc2)NC(=O)C[C@@H](C(=O)OCc2ccccc2)N1`: inactive: > 100 µM; for `C=C(C)C(=O)[C@@]12C(=O)[C@@H](C)CC[C@H]1[C@H](C)C[C@@H]2C=C(C)C`: inactive: 33.6 µM.
To `CC(C)C(Sc1nc(-c2ccccc2)c(-c2ccccc2)[nH]1)C(=O)N/N=C/c1ccc(Cl)cc1` (stereo not given) belongs inactive: 22.3 µM; to `Nc1nc(N)c2nc(CNc3ccc(C(=O)NC(CCC(=O)O)C(=O)O)cc3F)cnc2n1` (stereo not given), inactive: > 100 µM.
The same measure for `Cc1ccc(C2C(Cl)C(=O)N2NC(=O)c2ccc(N)cc2)cc1` (stereo not given): inactive: 19.1 µM.
Regarding `Brc1ccccc1/C=C\C1(c2ccccc2)OCCO1`, the GI50 is inactive: 16 µM.
The same measure for `COc1ccc(C2C(=O)c3ccc(OC)cc3OC2c2cccnc2)cc1` (stereo not given): inactive: > 100 µM; for `N#CC(c1ccc(Cl)cc1)c1c(=O)[nH]c2ccc(N)cc2[n+]1[O-]` (stereo not given): inactive: > 100 µM; for `N#CN=C(NCc1ccccc1)NCc1ccccc1`: inactive: > 100 µM.
To `CC1(C)OC[C@@H]([C@H](O)C2C=CC(=O)S2)O1` (stereo not given in full) belongs inactive: 33.7 µM; to `Clc1nc(-[n+]2ccc(-c3ccncc3)cc2)nc(Nc2ccccc2)c1Cl`, inactive: > 100 µM.
The same measure for `O=C(O)/C=C/c1nc2ccccc2c(=O)o1`: inactive: > 100 µM; for `C1=Cc2nccc3cc4c(c(c23)N1)OCO4`: inactive: 4.58 µM.
In the case of `Clc1cc2c(c(CSC3=NCN(CC4CC4)CN3)c1)OCOC2`, the GI50 is inactive: 25.2 µM.
To `CCOC(=O)c1oc2c(OC)cc(Cl)c3c2c1CCC3` belongs inactive: > 100 µM; to `CCCCC#COS(=O)(=O)c1ccc(C)cc1`, inactive: > 100 µM.
As to `CCOC(=O)C1(C/C=C\CBr)CCCCCCC1=O` (stereo not given), the GI50 is inactive: > 100 µM.
For the compound `Cc1ccc(Nc2nc(NNC(=O)Cc3ccccc3)nc(NNC(=O)c3ccncc3)n2)cc1`, the GI50 is inactive: > 10 µM.
Turning to `COC(OC)c1cccc2c1C(=O)CCC1(O)c3ccccc3C1C2` (stereo not given), the GI50 was inactive: > 100 µM.
To `c1ccc2c(c1)CCC/C2=N\OCC1CO1` (stereo not given) belongs inactive: > 100 µM; to `Cc1ccc(N2C(N)=C(C#N)C(C#N)(C#N)C2c2ccccc2)cc1` (stereo not given), inactive: 18.3 µM.
Take `S=c1scc(-c2ccc(Cl)cc2)n1OC1CCCC1`: the GI50 is inactive: 49.2 µM.
To `C[C@@H]1C[C@@H]2C(=O)N(c3ccccc3)C(=O)[C@@H]2c2[nH]c3ccc(Br)cc3c21` belongs inactive: 49.7 µM; to `O=C(Nc1nc(C23CC4CC(CC(C4)C2)C3)cs1)c1cc2ccc(O)cc2oc1=O`, inactive: 17.1 µM; to `C[C@]12Cc3cn[nH]c3C(=O)C1CC[C@@H]1C2CC[C@@]2(C)C1CC[C@]2(C)O` (stereo not given in full), inactive: > 100 µM.
To `COC(=O)C(C(=O)C(=O)Nc1nnc(S)[nH]1)c1csc(-n2nc(-c3ccccc3)cc2-c2ccccc2)n1` (stereo not given) belongs inactive: > 100 µM; to `CN(C)C(=S)/N=c1\ssc(=S)n1Cc1ccco1`, inactive: 5.97 µM; to `N#CCCC1(CCC#N)CCCCCCC(CCC#N)(CCC#N)C(O)C1O` (stereo not given), inactive: > 100 µM.
As to `COC(=O)CN1Cc2cc(C)cc(c2O)CN(CC(=O)OC)Cc2cc(C)cc(c2O)CN(CC(=O)OC)Cc2cc(C)cc(c2O)CN(CC(=O)OC)Cc2cc(C)cc(c2O)C1`, the GI50 was inactive: 8.02 µM.
To `O=c1[nH]cc(COCCO)c(=O)[nH]1` belongs inactive: > 100 µM.
Take `O=S(=O)(O)c1ccc2c(/N=N/c3ccc(Sc4ccc(/N=N/c5c(O)ccc6cc(S(=O)(=O)O)ccc56)cc4)cc3)c(O)ccc2c1`: the GI50 was inactive: > 100 µM.
The same measure for `CCCCOP1(=O)C=CC(Cl)=C(C)C1` (stereo not given): inactive: > 100 µM; for `CCCCc1c(O)nc(Nc2nc3ccccc3[nH]2)[nH]c1=O`: inactive: > 100 µM.
For `Cc1cc2c(cc1C)[n+]([O-])c(C(=O)CC(=O)C(=O)Nc1c(C(C)C)cccc1C(C)C)c(C)[n+]2[O-]`, the GI50 is inactive: > 100 µM.
The same measure for `N#Cc1c(-c2ccc([N+](=O)[O-])cc2)cc(-c2ccc(Nc3ccnc4cc(C(F)(F)F)ccc34)cc2)nc1N`: inactive: 30.6 µM.
To `COC(=O)N/N=C(\C)c1sc(-c2nc(C)c(/C(C)=N/NC(=O)OC)s2)nc1C` belongs inactive: > 100 µM; to `CN(C)c1n/c(=N/c2ccc(/N=c3\nc(N(C)C)ss3)cc2)ss1`, inactive: 61.1 µM.
For the compound `CO/N=C(\C)c1ccc(Nc2nc3ccccc3c3occc23)cc1`, the GI50 is inactive: 15.7 µM.
For the compound `CC(=O)OC1CCn2c1nc1cc([N+](=O)[O-])c(C)cc12` (stereo not given), the GI50 was inactive: > 100 µM.
`Cc1nnc(N)s/c1=N/O`: the GI50 was inactive: > 100 µM.
To `COC(=O)C12CCCN1CCC2` belongs inactive: > 100 µM; to `COc1ccc(C(N)=O)c(OC)c1OCc1ccccc1`, inactive: > 100 µM.
Consider `COc1cc(C2c3cc4c(cc3[C@@H](Nc3ccc(N5CCOCC5)cc3)C3COC(=O)[C@H]23)OCO4)cc(OC)c1O` (stereo not given in full), for which the GI50 was inactive: 4.32 µM.
The same measure for `COc1ccc(CC2c3cc(OC)c(OC)c(OC)c3CC[N+]2(C)C)cc1Oc1ccc(CC2c3cc4c(c(OC)c3CC[N+]2(C)C)OCO4)cc1` (stereo not given): inactive: > 100 µM; for `Oc1[nH]c(Nc2cccc(Br)c2)nc2ncnc1-2`: inactive: > 100 µM; for `CC(C)(C)C(=O)N1CCN(C=O)C1=S`: inactive: > 100 µM.
To `CCCCCc1cccc(=O)o1` belongs inactive: > 100 µM.

Values taken from ChEMBL document CHEMBL1201862, “PubChem BioAssay data set” (2004).
